According to the supplement of paper PMC11417369:
Some of the results follow.

tested on: PfHDP1 homeodomain (GST-tagged); assay: gcPBM binding intensity (ln(normalized median fluorescence intensity)); higher = stronger DNA binding
How it was run: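 The binding buffer was 1× PBS containing 1% milk, 0.2 mg/ml BSA, 0.5% salmon testes DNA and 0.03% Triton X-100. In it, GST-tagged P. falciparum DNA-binding domains expressed in E. coli were applied for 1 h to an Agilent 4 × 180k array of primer-extended double-stranded 36-bp intergenic genomic probes plus negative controls. Binding intensity, read with Alexa488 anti-GST antibody and a 488 nm scan, is the highest Masliner-normalised natural-log median intensity across replicate spots of either probe orientation.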

Row | Sequence | gcPBM binding intensity (ln)
1 | TTTTGAATATGGATCTTATATATATTAAATAAATAA [CACACA_negctrl_site344] | 5.97
2 | ATAAAATGATGTATCTGTGTATGTTTATTTTGTTTT [XGTACX_negctrl_site367] | 6.29
3 | TATTTCAAACTGTTCTCACACACGAAATTAGAAATG [CACACA_site611] | 6.29
4 | ATTATATACAAATAAAGTACATAAACAAATTCAGAA [XGTACX_site1187] | 6.24
5 | AAAAAAAAAAGAAATTGTACTTTTTGTTTAATAATT [XGTACX_site4681] | 6.18
6 | ATATTTTGTTATGAAACACACACATATATATATATA [CACACA_site9216] | 9.21
7 | TTGAGCCTACAAAAGGGTACACATTCAATTTATTTT [XGTACX_site6570] | 6.1
8 | GAAACGTTTTTTCAGTGTACATTTTACCGATTTGTA [XGTACX_site8249] | 6.83
9 | TAGTATAATATATATTGTACGTTTTAATTGTTTATA [XGTACX_site2731] | 6.24
10 | AAAAAAAAAAAACACACACACAAATACAAATACATA [CACACA_site415] | 6.89
11 | AAACTGAAAAAAATATGTACATATTTATATCTTATA [XGTACX_site3011] | 6.28
12 | TAAAGCAACTGAAACACACAAATTTTTTTTTTTTTT [CACACA_site7499] | 6.01
13 | ATTGTATAAAAATGTACATGCAATAAATTTAGTTCT [TGCATGCA_site675] | 6.82
14 | ATATAACATTGTTTTGCATGTAAATATTCAATTTTT [TGCATGCA_site758] | 6.44
15 | TCAAATTTAATCATAACACACATTCACATATGAATT [CACACA_site3199] | 6.28
16 | TTTTTATAAATAATAAGGCGTATGAAAATAAAATAA [TGCATGCA_negctrl_site421] | 6.48
17 | TCAAAATATCCAAAAGAATAAAGAAAAAAAAAAAGA [CACACA_negctrl_site1377] | 6.1
18 | ATATAATGAAGTGAATGTACATATAAAATGTAAAAA [XGTACX_site8052] | 6.37
19 | TCTTTTTTGAAGCATTTTGTTTTTTAATAAGTAAAA [TGCATGCA_negctrl_site247] | 6.21

Row | Sequence | gcPBM binding intensity (ln)
20 | TATATATATATTTAATGTACATGTTTATTTTATCAT [XGTACX_site499] | 8.26
21 | AATAAAATAAAAAAAAATAAAAAAAAAATAAAAAAT [XGTACX_negctrl_site245] | 6.54
22 | TATTTTTCTTTTTAAGTGCATGGTTGTATAAAATTT [GTGCAC_site9480] | 7.69
23 | TTTATAAAGGGAAAGGTGCAAAAGGTGAAAGTTTTA | 10.1
24 | TTATTAACGGAACTCTGTACTTAAAAAATTTTAGAA [XGTACX_site8787] | 6.25
25 | TATATAAGAATATATACACACATATCTGTATTTATA [CACACA_site5231] | 6.3
26 | AAAAAAACAGAAAACACACAAATTATCTTATAATTA [CACACA_site6282] | 6.32
27 | ATTGTTTCATTAAAATGTACATAAATTGTGTATAAT [XGTACX_site5341] | 7.03
28 | TATATCAAAAACGAGACATGCATGCCGTTCATTTTG [TGCATGCA_site211] | 6.05
29 | GAGTTTATATTTTAAGCATGCATATGTTATTATTAT [TGCATGCA_site1049] | 6.64
30 | CCTATAATTAGGGGTAGTACACAAAAAAAAAAAAAA [XGTACX_site6396] | 6.29
31 | AATATATATTCATGTGTACACACAAAAAAAAATAAA [CACACA_site8690] | 7.36
32 | AATTCCTTATACAATTGTACATAAAAAGAATAAAAA [XGTACX_site1343] | 6.47
33 | TTAAAAAAGAATTGTGCACACACAAAAAATGTTCAT [CACACA_site1102] | 10.6
34 | TGGTGTTTTTTTTAATGTACTTATAAAATAATACAT [XGTACX_site6574] | 6.53
35 | TTTTTTTTACATGAACGTACATAATATATTTTATAA [XGTACX_site5249] | 6.59
36 | ATGTAAAAATAAAGATGTACATGTATATATATATAT [XGTACX_site5193] | 9.03
37 | CTGAGGAAGCTAATTACACACATGCATATTTTTTTT [CACACA_site2177] | 6.8
38 | ATTATCTTCAAGTATGTACACACTATATATAATAAA [CACACA_site2441] | 6.58

Row | Sequence | gcPBM binding intensity (ln)
39 | ATCAAACAAAAAATAAAAAAATGCGACATGTGTACA [TGCATGCA_negctrl_site164] | 7.34
40 | CAAGGACAATTTACAAACATAATATATGTATATATA [TGCATGCA_negctrl_site5] | 5.98
41 | TTGAATACATATATATGTACATATTCTATGGTTAGA [XGTACX_site4088] | 6.45
42 | TTAATATTTTTAATTTGTACATATAATTAAATCTCT [XGTACX_site1736] | 6.35
43 | GAAAATTATGTATATTGTACAAATATTATATTAAAT [XGTACX_site2467] | 6.66
44 | TATAAAATTTAAATTATACACACTTAAGTAACATCA [CACACA_site531] | 6.86
45 | TACATGTATAATATAATACACACTATATAATATACA [CACACA_site2239] | 6.67
46 | TACATACATACATACATACACACATATATATATATA [CACACA_site1996] | 9.22
47 | AAATTATAATTAGGAACACACATATATATATATATA [CACACA_site3098] | 9.39
48 | ATAACATGAACATATGTTACACAAACATACATACAT [XGTACX_negctrl_site365] | 6.77
49 | AAAAAATATTTTAGTGGTACATTTGTAGCTCTCAAA [XGTACX_site4859] | 6.27
50 | AATCAAATATTTAAATGTACTCAAGAAGGCTTAATC [XGTACX_site6907] | 6.08
51 | GAAAAAAAAAAAAAAAAACACACGGTACATTCAAAG [CACACA_site303] | 6.07
52 | AAAAATATAATATAATGTACACAAAAAAAAAAAATC [XGTACX_site1427] | 6.64
53 | TATGAAGACACAAATACACACACTCAAAAAAAAAAA [CACACA_site2660] | 6.5
54 | AAAAAGAAGATGCAAACATGCACACAGAAAAAAAAA [TGCATGCA_site375] | 8.5
55 | CTATTATAAAAATGATGTACACTTATATATACATAT [XGTACX_site6087] | 6.69
56 | TTTTTTTTTTGAATATGTACTTAAAAAAATTTTTTT [XGTACX_site3851] | 6.13
